Assay results from PMC4336329 (PLoS ONE, 2015).
Out of some 310,000 compounds screened, about 2,200 (0.71%) showed an effect of 50% or more. Effects have a minus sign here. The list shows a part of the results.

These compounds were tested against human ether-à-go-go-related gene (hERG) potassium channel (human, UniProt Q12809) (assay: primary screen, population patch clamp on CHO cells stably expressing hERG).
human ether-à-go-go-related gene (hERG) potassium channel, sequence (Q12809 whole entry, looked up): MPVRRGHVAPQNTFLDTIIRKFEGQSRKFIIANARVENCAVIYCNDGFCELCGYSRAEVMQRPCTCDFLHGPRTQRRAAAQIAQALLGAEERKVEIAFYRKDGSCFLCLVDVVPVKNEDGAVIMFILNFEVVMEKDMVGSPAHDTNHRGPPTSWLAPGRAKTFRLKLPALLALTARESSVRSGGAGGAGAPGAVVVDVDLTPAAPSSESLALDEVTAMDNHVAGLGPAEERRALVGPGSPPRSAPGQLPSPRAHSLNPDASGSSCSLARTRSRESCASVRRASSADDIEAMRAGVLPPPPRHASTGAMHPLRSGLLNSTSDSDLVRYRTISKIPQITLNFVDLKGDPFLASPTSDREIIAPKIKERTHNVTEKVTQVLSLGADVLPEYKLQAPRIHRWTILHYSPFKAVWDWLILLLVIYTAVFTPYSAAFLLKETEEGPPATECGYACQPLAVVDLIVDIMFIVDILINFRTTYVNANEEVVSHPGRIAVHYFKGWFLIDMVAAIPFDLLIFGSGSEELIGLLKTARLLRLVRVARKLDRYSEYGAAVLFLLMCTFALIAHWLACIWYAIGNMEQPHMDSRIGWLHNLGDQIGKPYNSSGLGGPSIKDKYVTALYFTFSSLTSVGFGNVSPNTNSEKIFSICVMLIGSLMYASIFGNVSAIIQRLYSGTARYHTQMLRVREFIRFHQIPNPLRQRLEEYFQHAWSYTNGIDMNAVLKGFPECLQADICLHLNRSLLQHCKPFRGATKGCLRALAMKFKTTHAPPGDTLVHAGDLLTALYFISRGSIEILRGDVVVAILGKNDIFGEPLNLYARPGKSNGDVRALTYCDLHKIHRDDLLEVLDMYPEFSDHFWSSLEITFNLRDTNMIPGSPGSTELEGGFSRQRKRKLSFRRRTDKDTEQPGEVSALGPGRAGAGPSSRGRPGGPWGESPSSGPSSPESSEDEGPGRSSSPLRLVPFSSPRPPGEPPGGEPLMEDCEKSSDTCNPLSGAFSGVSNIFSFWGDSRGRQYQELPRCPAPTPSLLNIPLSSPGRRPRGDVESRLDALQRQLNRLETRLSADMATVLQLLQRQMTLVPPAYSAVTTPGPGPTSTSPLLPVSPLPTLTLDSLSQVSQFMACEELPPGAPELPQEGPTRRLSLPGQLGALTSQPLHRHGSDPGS

Structure (SMILES) | hERG current change (%, negative = inhibition) at 1uM
CC(C)=N/N=C(\N)SCc1ccccc1 | 0.331%
COc1ccc(-c2ccc(SCc3cccnc3)nn2)cc1OC | 20.3%
O=C(CSc1ncccn1)N1CCN(Cc2ccccc2)CC1 | 10.6%
c1ccc(CN2CCOCCOCCOCCOCC2)cc1 | -6.26%
O=C(COc1ccccc1Br)N1CCNC1=O | 1.69%
CCCCNC(=O)C1(O)c2cc(Br)ccc2NC(=O)N1c1cccc(OC)c1 (stereo not drawn) | 10.9%
Cc1cc(C(F)(F)F)c(C#N)c(Sc2ccccc2)n1 | 12.2%
OCCCNc1ncnc2scc(-c3ccc(Cl)cc3)c12 | 13%
Cc1nc2ccccc2c(=O)n1NC(=O)C1CCCCC1 | 12.5%
CCSc1ccc(-c2nn(-c3ccccc3)cc2/C=C(/C#N)C(=O)NCCCOC)cc1 | 4.75%
O=C(CCNC(=O)c1ccc(Br)cc1)Nc1nccs1 | 13.9%
CCOC(=O)c1ccc(NC(=O)CCc2nc(-c3cccc(C)c3)no2)cc1 | 10.6%
CNC(=O)c1nc[nH]c1C(=O)NC | 9.16%
CCCN(CCC)CCCNC(=O)CS(=O)Cc1nc(-c2ccc(OC)c(OC)c2)oc1C (stereo not drawn) | 2.97%
CCOc1ccc(N2CC(C(=O)NCc3ccc(F)cc3)CC2=O)cc1 (stereo not drawn) | -3.23%
CCC1CCCCN1CCCNC(=O)c1ccc2c(c1)NC(=O)CS2 (stereo not drawn) | 21.5%
COc1cc(/C=C2/C(=O)N(c3ccc([N+](=O)[O-])cc3)N=C2N2CCOCC2)ccc1O | -6.82%
O=C(O)C1CCN(C(=O)CSc2nc3ccccc3c(=O)n2Cc2ccccc2)CC1 | 1.3%
Cn1nc(C(=O)N2CCOCC2)c2ccccc2c1=O | 10.5%

Structure (SMILES) | hERG current change (%, negative = inhibition) at 1uM
CCc1nnc(NC(=O)CN2C(=O)c3ccccc3C2=O)s1 | 7.94%
CCOC(=O)N1CCN(C(=O)c2ccc3c(c2)sc2nc(-c4ccc(OC)cc4)cn23)CC1 | 3.2%
COc1ccc(C2CC(=O)C3=C(C2)Nc2ccccc2NC3c2coc3ccccc3c2=O)cc1OC (stereo not drawn) | 12.6%
C=CCOc1ccc(-c2n[nH]c(=S)o2)cc1 | 13.5%
COc1ccc(NS(=O)(=O)c2cccc3cccnc23)cc1OC | 21.4%
O=C(Nc1ccc2c(c1)OCO2)N1CCC(CO)(CC2CCCCO2)CC1 (stereo not drawn) | 9.73%
C=CCN1CCN(C(c2cc(OC)ccc2OC)c2nnnn2CC2CCCO2)CC1.Cl (stereo not drawn) | 12.4%
C/C(CC(=O)Nc1cccc2c1CCCC2)=N\NC(=O)COc1ccccc1 | 0.297%
COc1ccccc1N1CCN(C(=O)C2Cc3ccccc3CN2C(=O)c2ccco2)CC1 (stereo not drawn) | -11.8%
Cc1cccc(C)c1NC(=O)CN(C)C(=O)C1=COCCO1 | 19.3%
O=C(C1CCN(c2nnc(N3CCCC3=O)s2)CC1)N1CCN(c2cccc(C(F)(F)F)c2)CC1 | 4.09%
Cc1ccc(S(=O)(=O)c2nc(Nc3ccccc3N3CCOCC3)sc2Cl)cc1 | 9.73%
COc1ccc(CNC(=O)c2ccc(N3CCC4(CC3)CC(c3ccc(Cl)cc3)=NO4)c([N+](=O)[O-])c2)cc1 | 5.68%
O=C1Nc2cc(Cl)c(Cl)cc2N(O)N1c1ccc(Cl)cc1 | -1.79%
Cc1noc(C)c1-c1nc(CSc2ccc(Cl)cc2)no1 | 2.31%
Cc1[nH]c2ccccc2c1/C=N/NC(=O)c1cc(C(C)C)[nH]n1 | 13%
Cn1c(-c2cccs2)nc2ccccc21 | 6.26%
c1ccc2c(c1)nc1n2CN(Cc2ccc3c(c2)OCO3)CN1 | 15%
CS(=O)(=O)OCCCCOS(C)(=O)=O | 12.2%

Structure (SMILES) | hERG current change (%, negative = inhibition) at 1uM
CCOC(=O)CSc1cc(=O)n(CC)c2ccccc12 | 8.34%
O=c1cc2c(nn1Cc1cccc([N+](=O)[O-])c1)-c1ccccc1CC2 | 18.4%
CC(C)(C)C(=O)CSc1nnc(Nc2ccccc2)s1 | 9.63%
CC(=O)OCC(=O)[C@H]1CC[C@H]2[C@@H]3CC=C4C[C@@H](O)CC[C@]4(C)[C@H]3CC[C@]12C | 2.11%
COCC(=O)N1CCC(Oc2ccc(C(=O)N3CCSCC3)cc2)CC1 | 5.41%
Nc1nonc1-n1nnc(C(=O)N/N=C/c2cccc(Cl)c2Cl)c1CN1CCCC1 | 14.6%
CN(C)c1ccc(NC(=O)c2ccc(COc3cccc(Cl)c3)o2)cc1 | 3.43%
CC(C(=O)NC1CCCCCC1)n1cc([N+](=O)[O-])cn1 (stereo not drawn) | 12.4%
CCOC(=O)C1CCCN(C(=O)c2ccc(-c3ccc([N+](=O)[O-])cc3)o2)C1 (stereo not drawn) | -9.58%
Cc1nnc(SCC(=O)Nc2cccc(S(=O)(=O)N(C)c3ccccc3)c2)s1 | 5.83%
CC1CCN(C(=O)CCNC(=O)Cn2cnc3sc4c(c3c2=O)CCCC4)CC1 | 2.27%
O=C(COC(=O)c1ccncc1)Nc1cc(Cl)ccc1Cl | 9.87%
CCN(CC(=O)NC(C)C)C(=O)[C@@H](NC(=O)c1ccco1)C(C)C | 14.5%
O=C(c1cn(-c2ccccc2)nc1-c1ccc(F)cc1)N1CCCCC1 | 7.04%
CN(C)c1ccc(C(=O)Nc2cccc(S(=O)(=O)NC3=NCCCCC3)c2)cc1 | 12.2%
Cc1cc(CNC(=O)COC(=O)c2ccc(Cl)c(N)c2)cc(C)c1O | 9.01%
O=c1oc2ccccc2c(N2CCOCC2)c1[N+](=O)[O-] | 7.66%
O=C(Nc1ccc2c(c1)OCCO2)c1cccnc1Oc1ccccc1 | 13%
Cc1nc2ccccc2c(C)c1C(=O)c1ccc(F)cc1.Cl | 11.9%
